Measured values published in the supplement of paper PMC8728848.
The list shows a part of the results.

What was measured:
Test in all cases: glycan array binding signal (z-score within array); higher = stronger binding
Details in all cases: glycan notation: IUPAC condensed, linker removed
[1] = molecular target: GlcNAc(b1-2)Gal(b1-3)GalNAc
Method in brief: (§1)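 The binding signal is a Z-score computed within each array. Data were drawn from 3228 arrays in the Consortium for Functional Glycomics database, restricted to those with a known protein sequence. Scores were averaged over arrays of the same protein sequence at different concentrations or buffers, and over linkers, and negative values can be taken as non-binding.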

[2] = molecular target: GlcNAc(b1-2)Man(a1-3)[GlcNAc(b1-2)Man(a1-6)]Man(b1-4)GlcNAc(b1-4)GlcNAc
Method in brief: as §1

[3] = molecular target: GlcNAc(b1-2)Man(a1-3)[GlcNAc(b1-2)Man(a1-6)]Man(b1-4)GlcNAc(b1-4)[Fuc(a1-6)]GlcNAc
Method in brief: as §1

[4] = molecular target: GlcNAc(b1-2)Man(a1-3)[GlcNAc(b1-4)][GlcNAc(b1-2)Man(a1-6)]Man(b1-4)GlcNAc(b1-4)GlcNAc
Method in brief: as §1

[5] = molecular target: GlcNAc(b1-2)Man(a1-3)[GlcNAc(b1-4)][GlcNAc(b1-2)Man(a1-6)]Man(b1-4)GlcNAc(b1-4)[Fuc(a1-6)]GlcNAc
Method in brief: as §1

[6] = molecular target: GlcNAc(b1-2)[GlcNAc(b1-4)]Man(a1-3)[GlcNAc(b1-2)Man(a1-6)]Man(b1-4)GlcNAc(b1-4)GlcNAc
Method in brief: as §1

[7] = molecular target: GlcNAc(b1-2)[GlcNAc(b1-4)]Man(a1-3)[GlcNAc(b1-4)][GlcNAc(b1-2)Man(a1-6)]Man(b1-4)GlcNAc(b1-4)GlcNAc
Method in brief: as §1

[8] = molecular target: GlcNAc(b1-2)[GlcNAc(b1-4)]Man(a1-3)[GlcNAc(b1-4)][GlcNAc(b1-2)[GlcNAc(b1-6)]Man(a1-6)]Man(b1-4)GlcNAc(b1-4)GlcNAc
Method in brief: as §1

[9] = molecular target: GlcNAc(b1-2)[GlcNAc(b1-4)]Man(a1-3)[GlcNAc(b1-4)][GlcNAc(b1-2)[GlcNAc(b1-6)]Man(a1-6)]Man(b1-4)GlcNAc(b1-4)[Fuc(a1-6)]GlcNAc
Method in brief: as §1

[10] = molecular target: GlcNAc(b1-2)[GlcNAc(b1-6)]Man(a1-6)[GlcNAc(b1-2)Man(a1-3)]Man(b1-4)GlcNAc(b1-4)GlcNAc
Method in brief: as §1

[11] = molecular target: GlcNAc(b1-2)[GlcNAc(b1-6)]Man(a1-6)[GlcNAc(b1-2)Man(a1-3)]Man(b1-4)GlcNAc(b1-4)[Fuc(a1-6)]GlcNAc
Method in brief: as §1

[12] = molecular target: GlcNAc(b1-2)[GlcNAc(b1-6)]Man(a1-6)[GlcNAc(b1-4)][GlcNAc(b1-2)Man(a1-3)]Man(b1-4)GlcNAc(b1-4)GlcNAc
Method in brief: as §1

GlcNAc(b1-3)Fuc = molecular target: GlcNAc(b1-3)Fuc
Method in brief: as §1

GlcNAc(b1-3)Gal = molecular target: GlcNAc(b1-3)Gal
Method in brief: as §1

[13] = molecular target: GlcNAc(b1-3)Gal(b1-3)GalNAc
Method in brief: as §1

GlcNAc(b1-3)Gal(b1-4)Glc = molecular target: GlcNAc(b1-3)Gal(b1-4)Glc
Method in brief: as §1

[14] = molecular target: GlcNAc(b1-3)Gal(b1-4)GlcNAc
Method in brief: as §1

[15] = molecular target: GlcNAc(b1-3)Gal(b1-4)GlcNAc(b1-2)Man(a1-3)[GlcNAc(b1-3)Gal(b1-4)GlcNAc(b1-2)Man(a1-6)]Man(b1-4)GlcNAc(b1-4)GlcNAc
Method in brief: as §1

[16] = molecular target: GlcNAc(b1-3)Gal(b1-4)GlcNAc(b1-2)Man(a1-3)[GlcNAc(b1-3)Gal(b1-4)GlcNAc(b1-2)Man(a1-6)]Man(b1-4)GlcNAc(b1-4)[Fuc(a1-6)]GlcNAc
Method in brief: as §1

[17] = molecular target: GlcNAc(b1-3)Gal(b1-4)GlcNAc(b1-2)[GlcNAc(b1-3)Gal(b1-4)GlcNAc(b1-6)]Man(a1-6)[GlcNAc(b1-3)Gal(b1-4)GlcNAc(b1-2)Man(a1-3)]Man(b1-4)GlcNAc(b1-4)GlcNAc
Method in brief: as §1

[18] = molecular target: GlcNAc(b1-3)Gal(b1-4)GlcNAc(b1-3)Gal(b1-4)GlcNAc
Method in brief: as §1

[19] = molecular target: GlcNAc(b1-3)Gal(b1-4)GlcNAc(b1-3)Gal(b1-4)GlcNAc(b1-2)Man(a1-3)[GlcNAc(b1-3)Gal(b1-4)GlcNAc(b1-3)Gal(b1-4)GlcNAc(b1-2)Man(a1-6)]Man(b1-4)GlcNAc(b1-4)GlcNAc
Method in brief: as §1

[20] = molecular target: GlcNAc(b1-3)Gal(b1-4)GlcNAc(b1-3)Gal(b1-4)GlcNAc(b1-2)Man(a1-3)[GlcNAc(b1-3)Gal(b1-4)GlcNAc(b1-3)Gal(b1-4)GlcNAc(b1-2)Man(a1-6)]Man(b1-4)GlcNAc(b1-4)[Fuc(a1-6)]GlcNAc
Method in brief: as §1

[21] = molecular target: GlcNAc(b1-3)Gal(b1-4)GlcNAc(b1-3)Gal(b1-4)GlcNAc(b1-2)[GlcNAc(b1-3)Gal(b1-4)GlcNAc(b1-3)Gal(b1-4)GlcNAc(b1-6)]Man(a1-6)[GlcNAc(b1-3)Gal(b1-4)GlcNAc(b1-3)Gal(b1-4)GlcNAc(b1-2)Man(a1-3)]Man(b1-4)GlcNAc(b1-4)[Fuc(a1-6)]GlcNAc
Method in brief: as §1

[22] = molecular target: GlcNAc(b1-3)Gal(b1-4)GlcNAc(b1-3)Gal(b1-4)GlcNAc(b1-3)Gal(b1-4)GlcNAc(b1-2)Man(a1-3)[GlcNAc(b1-3)Gal(b1-4)GlcNAc(b1-3)Gal(b1-4)GlcNAc(b1-3)Gal(b1-4)GlcNAc(b1-2)Man(a1-6)]Man(b1-4)GlcNAc(b1-4)GlcNAc
Method in brief: as §1

[23] = molecular target: GlcNAc(b1-3)Gal(b1-4)GlcNAc(b1-3)Gal(b1-4)GlcNAc(b1-3)Gal(b1-4)GlcNAc(b1-2)Man(a1-3)[GlcNAc(b1-3)Gal(b1-4)GlcNAc(b1-3)Gal(b1-4)GlcNAc(b1-3)Gal(b1-4)GlcNAc(b1-2)Man(a1-6)]Man(b1-4)GlcNAc(b1-4)[Fuc(a1-6)]GlcNAc
Method in brief: as §1

[24] = molecular target: GlcNAc(b1-3)Gal(b1-4)GlcNAc(b1-3)Gal(b1-4)GlcNAc(b1-3)Gal(b1-4)GlcNAc(b1-2)[GlcNAc(b1-3)Gal(b1-4)GlcNAc(b1-3)Gal(b1-4)GlcNAc(b1-3)Gal(b1-4)GlcNAc(b1-6)]Man(a1-6)[GlcNAc(b1-3)Gal(b1-4)GlcNAc(b1-3)Gal(b1-4)GlcNAc(b1-3)Gal(b1-4)GlcNAc(b1-2)Man(a1-3)]Man(b1-4)GlcNAc(b1-4)[Fuc(a1-6)]GlcNAc
Method in brief: as §1

[25] = molecular target: GlcNAc(b1-3)Gal(b1-4)GlcNAc(b1-3)Gal(b1-4)GlcNAc(b1-3)Gal(b1-4)GlcNAc(b1-3)Gal(b1-4)GlcNAc(b1-2)Man(a1-3)[GlcNAc(b1-3)Gal(b1-4)GlcNAc(b1-3)Gal(b1-4)GlcNAc(b1-3)Gal(b1-4)GlcNAc(b1-3)Gal(b1-4)GlcNAc(b1-2)Man(a1-6)]Man(b1-4)GlcNAc(b1-4)GlcNAc
Method in brief: as §1

[26] = molecular target: GlcNAc(b1-3)Gal(b1-4)GlcNAc(b1-3)Gal(b1-4)GlcNAc(b1-3)Gal(b1-4)GlcNAc(b1-3)Gal(b1-4)GlcNAc(b1-2)Man(a1-3)[GlcNAc(b1-3)Gal(b1-4)GlcNAc(b1-3)Gal(b1-4)GlcNAc(b1-3)Gal(b1-4)GlcNAc(b1-3)Gal(b1-4)GlcNAc(b1-2)Man(a1-6)]Man(b1-4)GlcNAc(b1-4)[Fuc(a1-6)]GlcNAc
Method in brief: as §1

[27] = molecular target: GlcNAc(b1-3)Gal(b1-4)GlcNAc(b1-3)Gal(b1-4)GlcNAc(b1-3)Gal(b1-4)GlcNAc(b1-3)Gal(b1-4)GlcNAc(b1-2)[GlcNAc(b1-3)Gal(b1-4)GlcNAc(b1-3)Gal(b1-4)GlcNAc(b1-3)Gal(b1-4)GlcNAc(b1-3)Gal(b1-4)GlcNAc(b1-6)]Man(a1-6)[GlcNAc(b1-3)Gal(b1-4)GlcNAc(b1-3)Gal(b1-4)GlcNAc(b1-3)Gal(b1-4)GlcNAc(b1-3)Gal(b1-4)GlcNAc(b1-2)Man(a1-3)]Man(b1-4)GlcNAc(b1-4)[Fuc(a1-6)]GlcNAc
Method in brief: as §1

[28] = molecular target: GlcNAc(b1-3)Gal(b1-4)GlcNAc(b1-3)Gal(b1-4)GlcNAc(b1-3)GalNAc
Method in brief: as §1

[29] = molecular target: GlcNAc(b1-3)Gal(b1-4)GlcNAc(b1-3)GalNAc
Method in brief: as §1

[30] = molecular target: GlcNAc(b1-3)Gal(b1-4)GlcNAc(b1-3)[GlcNAc(b1-3)Gal(b1-4)GlcNAc(b1-3)]GalNAc
Method in brief: as §1

[31] = molecular target: GlcNAc(b1-3)Gal(b1-4)GlcNAc(b1-6)[Gal(b1-3)]GalNAc
Method in brief: as §1

[32] = molecular target: GlcNAc(b1-3)Gal(b1-4)GlcNAc(b1-6)[GlcNAc(b1-3)Gal(b1-3)]GalNAc
Method in brief: as §1

[33] = molecular target: GlcNAc(b1-3)Gal(b1-4)GlcNAc(b1-6)[GlcNAc(b1-3)]Gal(b1-4)GlcNAc
Method in brief: as §1

GlcNAc(b1-3)GalNAc = molecular target: GlcNAc(b1-3)GalNAc
Method in brief: as §1

GlcNAc(b1-3)Man = molecular target: GlcNAc(b1-3)Man
Method in brief: as §1

[34] = molecular target: GlcNAc(b1-3)[GlcNAc(b1-4)][GlcNAc(b1-6)]GlcNAc
Method in brief: as §1

[35] = molecular target: GlcNAc(b1-3)[GlcNAc(b1-6)]Gal(b1-4)GlcNAc
Method in brief: as §1

[36] = molecular target: GlcNAc(b1-3)[GlcNAc(b1-6)]GalNAc
Method in brief: as §1

[37] = molecular target: GlcNAc(b1-4)Gal(b1-4)GlcNAc
Method in brief: as §1

GlcNAc(b1-4)GlcNAc = molecular target: GlcNAc(b1-4)GlcNAc
Method in brief: as §1

[38] = molecular target: GlcNAc(b1-4)GlcNAc(b1-4)GlcNAc
Method in brief: as §1

[39] = molecular target: GlcNAc(b1-4)GlcNAc(b1-4)GlcNAc(b1-4)GlcNAc(b1-4)GlcNAc
Method in brief: as §1

B1: Mg3lysM (Mycosphaerella graminicola) (protein)
chain: APQNPPTSCSAAPQPTGTGSPGTVCGSTTFTNYTVKAGDTLGAIAKQYNSGVCDIAKVNGIDNPDYIKPDQVLSIPANCVTPDNTSCVKPVPVITNTCVLGVGSTYTVKSGDSFSAIATSFNITLASLEARNPQIPNYDLIFPGQVINTPLCPNSVCDSIGTYVIESGDIFYNLAQSNNVTVGQLESLNVNVNVTDIHPGDIIILPHNCHNITASA
glycan array binding signal (z-score) [1]: -0.053 | glycan array binding signal (z-score) [2]: -0.098 | glycan array binding signal (z-score) [3]: -0.152 | glycan array binding signal (z-score) [4]: -0.236 | glycan array binding signal (z-score) [5]: -0.071 | glycan array binding signal (z-score) [6]: -0.152 | glycan array binding signal (z-score) [7]: -0.068 | glycan array binding signal (z-score) [8]: -0.083 | glycan array binding signal (z-score) [9]: -0.113 | glycan array binding signal (z-score) [10]: -0.014 | glycan array binding signal (z-score) [11]: 0.027 | glycan array binding signal (z-score) [12]: -0.017 | glycan array binding signal (z-score) (GlcNAc(b1-3)Fuc): 0.041 | glycan array binding signal (z-score) (GlcNAc(b1-3)Gal): -0.19 | glycan array binding signal (z-score) [13]: -0.008 | glycan array binding signal (z-score) (GlcNAc(b1-3)Gal(b1-4)Glc): -0.114 | glycan array binding signal (z-score) [14]: -0.048 | glycan array binding signal (z-score) [15]: -0.109 | glycan array binding signal (z-score) [16]: -0.123 | glycan array binding signal (z-score) [17]: -0.174 | glycan array binding signal (z-score) [18]: -0.101 | glycan array binding signal (z-score) [19]: -0.032 | glycan array binding signal (z-score) [20]: -0.097 | glycan array binding signal (z-score) [21]: -0.054 | glycan array binding signal (z-score) [22]: -0.125 | glycan array binding signal (z-score) [23]: -0.011 | glycan array binding signal (z-score) [24]: -0.05 | glycan array binding signal (z-score) [25]: -0.191 | glycan array binding signal (z-score) [26]: 0.089 | glycan array binding signal (z-score) [27]: 0.031 | glycan array binding signal (z-score) [28]: -0.11 | glycan array binding signal (z-score) [29]: 0.057 | glycan array binding signal (z-score) [30]: -0.065 | glycan array binding signal (z-score) [31]: -0.09 | glycan array binding signal (z-score) [32]: -0.034 | glycan array binding signal (z-score) [33]: -0.025 | glycan array binding signal (z-score) (GlcNAc(b1-3)GalNAc): -0.066 | glycan array binding signal (z-score) (GlcNAc(b1-3)Man): -0.025 | glycan array binding signal (z-score) [34]: -0.022 | glycan array binding signal (z-score) [35]: -0.098 | glycan array binding signal (z-score) [36]: -0.075 | glycan array binding signal (z-score) [37]: -0.079 | glycan array binding signal (z-score) (GlcNAc(b1-4)GlcNAc): -0.082 | glycan array binding signal (z-score) [38]: 3.96 | glycan array binding signal (z-score) [39]: 19.9
